# Measured values from the supplement of paper PMC9542798.
# Columns and labels:
# Experiment in all cases: minimum inhibitory concentration
# Tylosin = compound: CC[C@H]1OC(=O)C[C@@H](O)[C@H](C)[C@@H](O[C@@H]2O[C@H](C)[C@@H](O[C@H]3C[C@@](C)(O)[C@@H](O)[C@H](C)O3)[C@H](N(C)C)[C@H]2O)[C@@H](CC=O)C[C@@H](C)C(=O)/C=C/C(C)=C/[C@@H]1CO[C@@H]1O[C@H](C)[C@@H](O)[C@@H](OC)[C@H]1OC [Tylosin]
# Method: (§1)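 Broth microdilution MIC per ISO 10932 on precoated VetMIC Lact-1 plates (tylosin, vancomycin and ampicillin plates prepared manually) against lactic acid bacteria and bifidobacteria isolates. Plates were read visually after 48 h anaerobic incubation (bifidobacteria 72 h; enterococci and staphylococci 24 h aerobic) at species-specific temperatures of 30 or 37 °C. Values prefixed with < or > are outside the tested dilution range.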
# Clindamycin = compound: CCC[C@@H]1C[C@@H](C(=O)N[C@@H]([C@H]2O[C@H](SC)[C@H](O)[C@@H](O)[C@H]2O)[C@H](C)Cl)N(C)C1 [Clindamycin]
# Method: as §1
# Gentamicin = compound: CNC(C)C1CCC(N)C(OC2C(N)CC(N)C(OC3OCC(C)(O)C(NC)C3O)C2O)O1 [Gentamicin]
# Method: as §1
# Ampicillin = compound: CC1(C)S[C@@H]2[C@H](NC(=O)[C@H](N)c3ccccc3)C(=O)N2[C@H]1C(=O)O [Ampicillin]
# Method: as §1
# Chloramphenicol = compound: O=C(N[C@H](CO)[C@H](O)c1ccc([N+](=O)[O-])cc1)C(Cl)Cl [Chloramphenicol]
# Method: as §1
# Neomycin = compound: NC[C@@H]1O[C@H](O[C@H]2[C@@H](O)[C@H](O[C@@H]3[C@@H](O)[C@H](N)C[C@H](N)[C@H]3O[C@H]3O[C@H](CN)[C@@H](O)[C@H](O)[C@H]3N)O[C@@H]2CO)[C@H](N)[C@@H](O)[C@@H]1O [Neomycin]
# Method: as §1
# Streptomycin = compound: CN[C@@H]1[C@H](O[C@H]2[C@H](O[C@H]3[C@H](O)[C@@H](O)[C@H](N=C(N)N)[C@@H](O)[C@@H]3N=C(N)N)O[C@@H](C)[C@]2(O)C=O)O[C@@H](CO)[C@H](O)[C@H]1O [Streptomycin]
# Method: as §1
# Erythromycin = compound: CC[C@H]1OC(=O)[C@H](C)[C@@H](O[C@H]2C[C@@](C)(OC)[C@@H](O)[C@H](C)O2)[C@H](C)[C@@H](O[C@@H]2O[C@H](C)C[C@H](N(C)C)[C@H]2O)[C@](C)(O)C[C@@H](C)C(=O)[C@H](C)[C@@H](O)[C@]1(C)O [Erythromycin]
# Method: as §1
# Vancomycin = compound: CN[C@H](CC(C)C)C(=O)N[C@H]1C(=O)N[C@@H](CC(N)=O)C(=O)N[C@H]2C(=O)N[C@H]3C(=O)N[C@H](C(=O)N[C@H](C(=O)O)c4cc(O)cc(O)c4-c4cc3ccc4O)[C@H](O)c3ccc(c(Cl)c3)Oc3cc2cc(c3O[C@@H]2O[C@H](CO)[C@@H](O)[C@H](O)[C@H]2O[C@H]2C[C@](C)(N)[C@H](O)[C@H](C)O2)Oc2ccc(cc2Cl)[C@H]1O [Vancomycin]
# Method: as §1
# Tetracycline = compound: CN(C)[C@@H]1C(O)=C(C(N)=O)C(=O)[C@@]2(O)C(O)=C3C(=O)c4c(O)cccc4[C@@](C)(O)[C@H]3C[C@@H]12 [Tetracycline]
# Method: as §1
# Kanamycin = compound: NC[C@H]1O[C@H](O[C@H]2[C@H](O)[C@@H](O[C@H]3O[C@H](CO)[C@@H](O)[C@H](N)[C@H]3O)[C@H](N)C[C@@H]2N)[C@H](O)[C@@H](O)[C@@H]1O [Kanamycin]
# Method: as §1
# 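Note: isolates derived from commercial starter, protective, probiotic or feed-additive cultures, from fermented products, from human gut mucosa or feces, and from human milk or colostrum.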
Test System,minimum inhibitory concentration (Tylosin) [µg/mL],minimum inhibitory concentration (Clindamycin) [µg/mL],minimum inhibitory concentration (Gentamicin) [µg/mL],minimum inhibitory concentration (Ampicillin) [µg/mL],minimum inhibitory concentration (Chloramphenicol) [µg/mL],minimum inhibitory concentration (Neomycin) [µg/mL],minimum inhibitory concentration (Streptomycin) [µg/mL],minimum inhibitory concentration (Erythromycin) [µg/mL],minimum inhibitory concentration (Vancomycin) [µg/mL],minimum inhibitory concentration (Tetracycline) [µg/mL],minimum inhibitory concentration (Kanamycin) [µg/mL]
Enterococcus faecalis IM1310 (strain group: non-starter strains),1,2,64,1,8,64,128,2,1,0.5,128
Enterococcus faecalis IM1311 (strain group: non-starter strains),2,2,32,1,8,128,128,2,1,0.5,128
Enterococcus durans IM1304 (strain group: non-starter strains),1,0.25,8,1,8,8,32,0.12,0.5,0.5,16
Enterococcus faecalis IM1300 (strain group: non-starter strains),2,16,16,2,8,128,128,1,1,1,64
Staphylococcus carnosus IM1455 (strain group: starter cultures),0.5,0.25,< 0.5,0.5,4,< 0.5,4,0.5,< 0.25,0.5,< 2
Staphylococcus carnosus IM1451 (strain group: starter cultures),0.25,0.25,< 0.5,0.5,4,< 0.5,4,0.25,0.5,0.25,< 2
Enterococcus faecium IM314 (strain group: probiotic strains),4,4,16,2,4,16,64,8,1,0.25,512
Staphylococcus carnosus IM1453 (strain group: starter cultures),0.5,0.5,< 0.5,0.5,4,< 0.5,2,0.5,< 0.25,0.5,< 2
Staphylococcus carnosus IM1462 (strain group: protective cultures),1,0.5,< 0.5,0.5,4,< 0.5,4,0.5,0.5,0.5,< 2
Enterococcus durans IM1317 (strain group: non-starter strains),1,0.25,8,2,8,8,32,0.25,0.5,0.5,16
Enterococcus durans IM1303 (strain group: non-starter strains),1,0.25,4,1,8,4,32,0.12,0.5,0.5,16
Lactobacillus gasseri IM824 (strain group: human milk or colostrum),,8,2,0.5,4,8,8,0.12,1,2,64
Bifidobacterium adolescentis IM673 (strain group: human intestinal mucosa or faeces),,0.12,64,1,1,> 256,64,0.25,0.5,1,1020
Lactococcus lactis IM1463 (strain group: protective cultures),,0.12,< 0.5,0.5,2,1,8,0.25,< 0.25,0.25,< 2
Bifidobacterium adolescentis IM769 (strain group: human intestinal mucosa or faeces),,0.12,128,0.25,2,128,64,0.25,0.5,16,512
Bifidobacterium adolescentis IM680 (strain group: human intestinal mucosa or faeces),,0.06,64,0.063,2,64,128,0.12,< 0.25,1,512

Test System,minimum inhibitory concentration (Tylosin) [µg/mL],minimum inhibitory concentration (Clindamycin) [µg/mL],minimum inhibitory concentration (Gentamicin) [µg/mL],minimum inhibitory concentration (Ampicillin) [µg/mL],minimum inhibitory concentration (Chloramphenicol) [µg/mL],minimum inhibitory concentration (Neomycin) [µg/mL],minimum inhibitory concentration (Streptomycin) [µg/mL],minimum inhibitory concentration (Erythromycin) [µg/mL],minimum inhibitory concentration (Vancomycin) [µg/mL],minimum inhibitory concentration (Tetracycline) [µg/mL],minimum inhibitory concentration (Kanamycin) [µg/mL]
Bifidobacterium adolescentis IM681 (strain group: human intestinal mucosa or faeces),,< 0.03,16,0.063,2,64,16,< 0.016,< 0.25,0.5,128
Lactiplantibacillus plantarum IM1468 (strain group: starter cultures),,4,8,0.5,8,8,64,0.5,> 128,16,128
Lactococcus lactis IM1375 (strain group: starter cultures),,0.25,2,0.25,2,8,16,0.5,< 0.25,0.25,8
Bifidobacterium adolescentis IM676 (strain group: human intestinal mucosa or faeces),,0.06,32,0.063,2,16,32,0.12,0.5,16,256
Bifidobacterium longum IM802 (strain group: human intestinal mucosa or faeces),,0.12,128,0.5,4,256,64,0.25,0.5,1,1020
Bifidobacterium animalis IM726 (strain group: human milk or colostrum),,< 0.03,32,1,2,64,16,0.06,2,8,128
Lactobacillus gasseri IM951 (strain group: human intestinal mucosa or faeces),,0.5,4,1,4,64,64,0.25,1,4,128
Bifidobacterium bifidum IM784 (strain group: human intestinal mucosa or faeces),,0.12,128,0.125,2,128,128,0.25,0.5,16,512
Bifidobacterium sp. IM962 (strain group: human intestinal mucosa or faeces),,0.06,16,2,2,16,16,0.12,0.5,1,128
Lactococcus lactis IM1370 (strain group: starter cultures),,0.5,< 0.5,0.25,2,< 0.5,4,0.5,< 0.25,0.25,< 2
Bifidobacterium adolescentis IM662 (strain group: human intestinal mucosa or faeces),,4,128,0.125,2,256,> 256,0.25,0.5,2,1020
Bifidobacterium animalis IM1342 (strain group: probiotic strains),,< 0.03,8,0.25,< 0.12,8,32,0.25,0.5,2,64
Bifidobacterium adolescentis IM765 (strain group: human intestinal mucosa or faeces),,0.12,64,0.063,2,64,128,0.12,0.5,1,256
Bifidobacterium adolescentis IM670 (strain group: human intestinal mucosa or faeces),,4,64,0.25,1,128,64,0.12,0.5,2,256
Lactococcus lactis IM1343 (strain group: non-starter strains),,0.5,8,0.5,4,16,64,1,< 0.25,0.25,16
